These results are taken from ChEMBL document CHEMBL4888484, “Replenishing the malaria drug discovery pipeline: Screening and hit evaluation of the MMV Hit Generation Library 1 (HGL1) against asexual blood stage Plasmodium falciparum ,using a nano luciferase reporter read-out” (2022).

Out of some 150,000 compounds screened, about 540 (0.36%) showed an effect of 50% or more. This is one part of the list.

The test relates to Plasmodium falciparum. In words: Primary screen in NF54 nanoGlo assay, in single point, at 2uM, 72h; a lower Z score goes with more inhibition. To be noted: timepoint 72 hour. The format is functional, Erythrocyte.
As to `O=C(NCCc1ccccc1)N1CCC2(CC1)C[C@@H](CCOCc1ccccc1)CCO2`, the % Inhibition (in general, the relative decrease from the control value, in per cent) is -1% and the Z score is on record as 0.14.
The corresponding values for `CCc1nc(COc2ccc(C(=O)NC[C@H]3CCO[C@@H]3C(C)(C)C)cc2)no1` are -18% and 2.49.
On the same counts, the results for `CCOC(=O)c1cnn(-c2ncnc(CC)c2F)c1C(F)F` are 3% and -0.35.
The corresponding values for `CC[C@@H](CS(=O)(=O)NC1CCC1)OC` are 4% and -0.51.
Consider `CC(C)(C)c1coc(CNC(=O)N[C@H]2CCO[C@@H]2c2ccccc2)n1`, for which the “% Inhibition” value is listed as -6% and the Z score was 0.72.
On the same counts, the results for `CCCCn1nnnc1CN1CC[C@@]2(CCCN(C)C2)C1` are -6% and 0.66.
The corresponding values for `C[C@@H]1CC[C@H](C(=O)OC(C)(C)C)[C@H](C)N1C(=O)C1COCCO1` (stereo partly specified) are 26% and -3.31.
`Cc1c(C(=O)N2CC(C)(O)C2)sc2ncc(C(=O)N3CC(C)(O)C3)cc12`: the “% Inhibition” value is on record as -6% and the Z score stood at 1.05.
On the same counts, the results for `FC(F)CN1CCN(Cc2ccccc2N2CCOCC2)CC1` are -14% and 1.72.
As to `CN1CC[C@@]2(CCC1=O)CN(Cc1ccco1)CCN2C`, the “% Inhibition” value worked out at 6% and the Z score is -0.97.
As for `O=C1CCCN1c1ccc(S(=O)(=O)N2CCCC2)cc1`, the “% Inhibition” value is on record as -1% and the Z score is on record as 0.12.
On the same counts, the results for `CC(C)(C)OC(=O)N1CCN(C2CCC(NC(=O)CC3CCC3)CC2)CC1` (stereo unspecified) are 10% and -1.56.
On the same counts, the results for `CCOC(=O)c1cnn(-c2ccnc3cc(Cl)ccc23)c1CN1CCC[C@H]1CO` are -10% and 1.25.
On the same counts, the results for `O=C(c1cccc(Cl)c1)N1CCC2(CCCC2)C1` are -8% and 0.99.
Turning to `Cc1cc2c(cc1C)N(CC(=O)N1CCN(c3ccc(F)cc3)CC1)C(=O)[C@H]1CCCC1=N2`, the “% Inhibition” value is given as -9% and the Z score came out at 1.4.
On the same counts, the results for `CCCCN(CC(N)=O)S(=O)(=O)c1ccc(C)c(F)c1` are -16% and 1.6.
On the same counts, the results for `Cc1n[nH]c(C)c1S(=O)(=O)N1CCN(C(=O)CCn2c(C)ccc2C)CC1` are -12% and 1.55.
On the same counts, the results for `Cc1ccc(Cc2nc(N3CCN(C(=O)c4cccc(F)c4)CC3)c3c(C)nn(-c4ccccc4)c3n2)cc1` are -2% and 0.32.
Consider `Cc1cc(=O)c(C(=O)NC2CCN(CC(=O)NC3CC3)CC2)cn1C`, for which the “% Inhibition” value was -8% and the Z score was determined as 1.66.
On the same counts, the results for `COc1ccc([C@@H]2Cn3cc(C(=O)NCc4cccnc4)nc3C(=O)N2)cc1` are -18% and 2.5.
On the same counts, the results for `CC(C)n1ccnc1CN1CCCCCCCC1=O` are -5% and 0.59.
The corresponding values for `CN(Cc1ccsc1)C(=O)CCc1ccsc1` are -6% and 0.51.
As to `COc1ccc(CN(C)C(=O)CCC(=O)Nc2nncs2)cc1O`, the “% Inhibition” value is reported as 4% and the Z score is -0.69.
On the same counts, the results for `CCc1nc(-c2ccccc2)nc(N2CCN(C(=O)c3ccc(F)cc3)CC2)c1Cc1cccc(OC)c1` are -10% and 1.66.
The corresponding values for `Cc1cccc(C)c1CC(=O)Nc1cccn(CC(=O)N(C)C)c1=O` are -5% and 0.82.
On the same counts, the results for `O=C(Nc1ccc(F)cn1)NC1C2C3CCC(C3)C12` (stereo unspecified) are 1% and -0.12.
`Cc1ccc(N2C[C@@H](c3noc(-c4ccncc4)n3)CC2=O)cc1`: the “% Inhibition” value is reported as -1% and the Z score worked out at 0.19.
Consider `CCOc1cccc(CNC(=O)[C@H]2CC(=O)N(CCN3CCOCC3)C2)c1`, for which the “% Inhibition” value was -4% and the Z score is reported as 0.84.
Turning to `Cn1cc(C(=O)N2CCC[C@H]2c2ccc3c(c2)OCCO3)c2ccccc21`, the “% Inhibition” value was determined as 4% and the Z score is listed as -0.82.
For the compound `COc1ccc(C(=O)N2CCN(S(=O)(=O)c3ccc(F)cc3)C[C@@H]2C(=O)N[C@H]2CCCNC2=O)cc1`, the “% Inhibition” value is reported as -8% and the Z score is recorded as 1.31.
With `CCC1(CC)CCN(C(=O)CN2CCCCCC2)C1`, the “% Inhibition” value was -8% and the Z score is given as 1.46.
The corresponding values for `Cc1cc(-c2ccccc2Cl)n(C2CCNCC2)n1` are 6% and -1.16.
For `c1ccc(-n2cc(-c3ccc(CN4CCOCC4)cc3)cn2)nc1`, the “% Inhibition” value is -11% and the Z score turned out to be 1.27.
On the same counts, the results for `CC(=O)N(C[C@H]1CCCN1S(=O)(=O)Cc1ccccc1F)C1CC1` are 0% and 0.02.
The corresponding values for `Cc1nn(Cc2cccc3ccccc23)c(=O)c(C#N)c1C` are -15% and 2.92.
For the compound `CC(C)CCNc1ccc(C(=O)N2CCC(CN3CCCC3=O)CC2)cn1`, the “% Inhibition” value is recorded as -16% and the Z score amounted to 3.11.
As to `Cc1cc(NC(=O)CCCn2nnc3cc(S(=O)(=O)N4CCCCC4)ccc32)no1`, the “% Inhibition” value was -2% and the Z score was determined as 0.32.
The corresponding values for `CC1(C2CCN(CCN3C(=O)NC4(CCCC4)C3=O)CC2)OCCO1` are -4% and 0.76.
The corresponding values for `COc1cccc([C@@H](O)Cn2cnc3c(N4CCOCC4)ncnc32)c1` are 5% and -0.77.
Regarding `C[C@@H]1CN(C(=O)c2ccn(C)n2)CC[C@@]1(O)C1CCOCC1`, the “% Inhibition” value is given as -10% and the Z score worked out at 1.72.
The corresponding values for `CNC(N)=NCC1(c2cccs2)CCCC1` are -3% and 0.35.
For the compound `CC(C)(C)C(=O)N1CCN(c2nc3ncccc3o2)CC1`, the “% Inhibition” value is listed as -13% and the Z score is on record as 1.3.
The corresponding values for `CC1CCCC1NC(=O)N(C)CCOCC1CC1` (stereo unspecified) are -14% and 1.15.
On the same counts, the results for `CCc1nn(C)c(NC(=O)[C@H](CC)OC)c1CC` are 2% and -0.19.
Consider `O=C(Nc1ccon1)c1cc(S(=O)(=O)N2CCCC2)cs1`, for which the “% Inhibition” value is on record as -7% and the Z score worked out at 1.19.
On the same counts, the results for `CCS(=O)(=O)N1CC(CN[C@H](c2ncc[nH]2)c2cccs2)C1` are 12% and -1.38.
On the same counts, the results for `CCC(=O)N(CC(=O)N(CCc1c[nH]c2ccccc12)Cc1ccc(Cl)cc1)CC(C)C` are -4% and 0.59.
The corresponding values for `COC(=O)c1ccccc1NC(=O)N1CCC(Oc2ccc(Cl)cc2)CC1` are 4% and -0.7.
Take `O=C(CCc1ccco1)Nc1ccnn1C1CCCCC1`: the “% Inhibition” value is -7% and the Z score stood at 0.72.
On the same counts, the results for `COc1ccc(NC(C)=O)cc1NC(=O)c1ccc2c(c1)CCCC2` are -19% and 3.42.
On the same counts, the results for `Cc1ccc(NC(=O)[C@@H]2Cc3ccccc3C(=O)O2)cc1OCC1CCOCC1` are -12% and 1.87.
On the same counts, the results for `CC(CCc1ccccc1F)N[C@@H](CC(N)=O)c1ccccc1` (stereo partly specified) are 2% and -0.27.
Regarding `CNC(=O)CN1C[C@H](NC(=O)C2(COC)CCC2)[C@@H](c2ccccc2)C1`, the “% Inhibition” value is recorded as -4% and the Z score was 0.62.
